# In PubChem BioAssay AID504832 (National Center for Advancing Translational Sciences (NCATS), 2011):
# Values joined by “and” are separate entries in the source; they are usually repeats but may differ in a detail not shown here. Equal entries are not always repeated. Among all 310,000 compounds or so, about 18,000 (5.8%) were called active. Inconclusive means that the source gave no clear call. Such entries were picked first, then a sample of the others. Calls follow the shape of the dose curve; as a rule, active = well fitted inhibition curve with a large enough effect; inconclusive = small, poorly fitted or top-dose-only effect, or another doubt; inactive = no such curve, though single readings can be large or run the other way. Potencies of inconclusive entries are left out as doubtful fits.
# Assay: Primary qHTS for delayed death inhibitors of the malarial parasite plastid, 48 hour incubation
# Details: P. falciparum luciferase growth in erythrocytes; series mostly up to 28.7 µM
# Method in brief: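 First compound was added to culture medium, then infected red cells at 0.1% parasitemia and 2% hematocrit (final). After incubation at 37 C under 5% CO2, luciferase detection reagent was dispensed and light output recorded.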
# Potency is read from the fitted curve at half-maximal effect; tags tell the direction and shape of the fitted curve.
row,SMILES,Potency
1,CC(=O)CCc1oc2c([N+](=O)[O-])cccc2c1-c1ccc(C)o1,inactive
2,CCn1cc(CN2CCc3c([nH]c4ccccc34)C2c2ccc(F)c(OC)c2)c(C)n1 (centres undefined),active: 11.7 µM
3,CCOc1ccc(N(CC(=O)NCc2ccc(F)cc2)C(=O)c2snc(C(N)=O)c2N)cc1,inactive
4,CCOC(=O)C1CCN(C(=O)Cn2cnc3sc(C)c(S(=O)(=O)N4CCOCC4)c3c2=O)CC1,active: 1.47 µM
5,Cc1ccc(C(=O)NCCc2nnc3ccc(SCC(=O)Nc4ccc(C)cc4C)nn23)cc1,"inconclusive [inhibitor, single point]"
6,COCCn1c(C)cc(C(=O)CSc2nc3ccccc3o2)c1C,inactive
7,CC(=O)Oc1ccc(C(=O)Nc2ccc(S(=O)(=O)N3CCOCC3)cc2)cc1,"inconclusive [inhibitor, single point]"
8,Cc1sc2nc(CSc3ccccc3)nc(NCCN(C)C)c2c1C,"inconclusive [inhibitor, partial curve, poor fit]"
9,CC(NC(=O)c1cccc(S(=O)(=O)N2CCc3ccccc32)c1)c1ccco1 (centres undefined),"inconclusive [inhibitor, single point]"
10,COc1ccc(N2CCN(C(=O)CCNC(=O)Cn3ccc4ccccc4c3=O)CC2)cc1,inactive
11,CCn1c2ccccc2c2cc(NC(=O)C(C)C)ccc21,"inconclusive [inhibitor, single point]"
12,CCOCCCNC(=O)C(c1ccc(OC)cc1)N(Cc1cccs1)C(=O)c1ccccn1 (centres undefined),inactive
13,O=C(Nc1cccc(NC(=O)c2ccccc2[N+](=O)[O-])c1)c1ccccc1Cl,"inconclusive [inhibitor, single point]"
14,O=C(CN1CCN(S(=O)(=O)c2ccc(F)c(Cl)c2)CC1)N1CCOCC1,inactive
15,Cc1cc(-n2c(C)cc(C(=O)CSc3nnnn3-c3ccccc3)c2C)no1,"inconclusive [inhibitor, partial curve, poor fit]"
16,CCN(CC(=O)NCc1ccc(Cl)cc1)C(=O)c1cccc(S(=O)(=O)Nc2ccc(OC)cc2)c1,"inconclusive [inhibitor, single point]"
17,Cc1ccc(C2=NN(S(=O)(=O)c3ccccc3)C(c3ccccc3O)C2)cc1 (centres undefined),"inconclusive [inhibitor, single point]"
18,CC(=O)Nc1ccc(OC(=O)c2ccccc2OC(C)=O)cc1,inactive
19,COC(=O)c1ccc(C2C3=C(Nc4nnnn42)c2ccccc2OC3)cc1 (centres undefined),"inconclusive [inhibitor, single point]"
20,COCCn1c(C(=O)N2CCCC2)cc2c1C[C@H]1CN(C(=O)c3ccccc3)[C@@](Cc3ccc(F)cc3)(C(=O)OC)[C@@H]21,active: 1.65 µM
21,CCCC[C@@H]1CNC(=S)N1CCCc1cc(OC)c(OC)c(OC)c1,"inconclusive [inhibitor, partial curve, poor fit]"
22,COc1ccc(C(CNC(=O)COc2ccccc2)N2CCOCC2)cc1 (centres undefined),"inconclusive [inhibitor, partial curve]"
23,Brc1ccc2c(c1)CN1CCCC1=N2,active: 10.4 µM

row,SMILES,Potency
1,O=C1/C(=C\c2cccnc2)CN(Cc2ccccc2)C/C1=C\c1cccnc1,"inconclusive [inhibitor, single point]"
2,Cc1cc(C)c2nc(N(CCCN(C)C)C(=O)c3ccc4c(c3)CCCC4)sc2c1,active: 7.38 µM
3,O=C(c1ccccc1)N1N=C(c2cccs2)CC1c1ccccc1O (centres undefined),"inconclusive [inhibitor, single point]"
4,N=C(SC1CC(=O)N(c2ccc(F)cc2)C1=O)N1N=C(c2ccccc2)CC1c1ccccc1 (centres undefined),active: 2.08 µM
5,CC(C)C(=O)NC(Nc1cccc([N+](=O)[O-])c1)C(Cl)(Cl)Cl (centres undefined),active: 1.85 µM
6,Cc1cc(C#Cc2c(-c3ccccc3)n(C)c3ccccc23)ccc1F,"inconclusive [inhibitor, partial curve]"
7,O=C(CC1SC(N2CCCC2)=NC1=O)Nc1ccc(C(=O)N2CCCC(C(F)(F)F)C2)cc1 (centres undefined),"inconclusive [inhibitor, single point]"
8,CCn1c(-c2ccccc2)csc1=Nc1ccc(O)cc1,inactive
9,CC(C)(C)n1nnnc1C(c1cccs1)N1CCN(Cc2ccc3c(c2)OCO3)CC1 (centres undefined),"inconclusive [inhibitor, single point]"
10,COc1ccc(C2/C=C\CN(C(=O)C3CC3)[C@H](Cc3ccccc3)C(=O)N2Cc2ccc(F)cc2)cc1 (some centres undefined),active: 10.4 µM
11,COc1ccc(-c2c(C)c3cc(O)ccc3oc2=O)cc1,"inconclusive [inhibitor, partial curve, poor fit]"
12,O=C1c2ccccc2C2=Nc3ccccc3SC(c3cccc(F)c3)C12 (centres undefined),active: 0.586 µM
13,Cc1cccc(C(=O)NCCC(=O)Nc2ccc(F)c([N+](=O)[O-])c2)c1,inactive
14,Fc1ccc(NC(=S)NCc2ccccc2Cl)cc1,inactive
15,COc1cccc(Cn2c(OCC3CCCO3)nc3c2c(=O)n(C)c(=O)n3C)c1 (centres undefined),"inconclusive [inhibitor, partial curve, poor fit]"
16,Cc1cccc(N(CC(=O)Nc2ccccc2-c2ccccc2)S(=O)(=O)c2ccccc2)c1C,active: 8.28 µM
17,Cc1ccc(CCc2nnc(SCC(=O)Nc3cccc(Cl)c3)n2-c2ccccc2)o1,"inconclusive [inhibitor, single point]"
18,COc1cccc(OCCNc2cc(Cl)ccc2[N+](=O)[O-])c1,"inconclusive [inhibitor, single point]"
19,Nc1nc(NCC2CCCO2)nc(Nc2ccc(Cl)cc2)c1[N+](=O)[O-] (centres undefined),"inconclusive [inhibitor, single point]"
20,O=C(NCC1CCN(Cc2ccc(Cl)cc2)CC1)C1CCCN(c2ncnc3c2nc2n3CCCCC2)C1 (centres undefined),active: 11.7 µM
21,CCC(C)N=C1Sc2nc3ccc(C)cc3cc2CN1CCOC (centres undefined),"inconclusive [inhibitor, full curve, poor fit]"
22,O=C(Cc1cccc(C(F)(F)F)c1)Nc1ccc(S(=O)(=O)N2CCCC2)cc1,"inconclusive [inhibitor, full curve]"
23,COc1ccc(-c2nnc(OCc3ccccc3)c3ccccc23)cc1,"inconclusive [inhibitor, partial curve, poor fit]"

row,SMILES,Potency
1,CCOC(=O)CC(=O)CSc1nc2c(cc1C#N)CCCCCC2,active: 2.33 µM
2,O=C(c1cc(-c2ccccc2)nc2ccccc12)N1CCOCC1,inactive
3,CN(C)CCn1c2ccccc2c2nc3ccc([N+](=O)[O-])cc3cc21,active: 1.85 µM
4,OC(CN1CCCCC1)Cn1c2ccccc2c2ccccc21 (centres undefined),"inconclusive [inhibitor, partial curve, poor fit]"
5,CCCCc1c(C)nn(-c2nnc3c4ccccc4n(CC)c3n2)c1C,"inconclusive [inhibitor, full curve, poor fit]"
6,CCOc1ccc(-n2nc(C(=O)NC3CCCCC3)c3ccccc3c2=O)cc1,"inconclusive [inhibitor, partial curve]"
7,c1ccc(-c2csc(Nc3nc(N4CCOCC4)nc(N4CCOCC4)n3)n2)cc1,"inconclusive [inhibitor, partial curve, poor fit]"
8,COC(=O)c1c(C(=O)OC)c(-c2ccc(OC)cc2)n2c1CS(=O)(=O)C2,"inconclusive [inhibitor, partial curve, poor fit]"
9,O=C(NCCCN1CCN(CCCNC(=O)c2cccc(Cl)c2)CC1)c1cccc(Cl)c1,"inconclusive [inhibitor, single point]"
10,Cc1cc(C)cc(N(C(=O)Cc2cccs2)C(C(=O)NC2CCCCC2)c2ccccn2)c1 (centres undefined),"inconclusive [inhibitor, single point]"
11,Fc1ccc(-c2csc3ncnc(Cl)c23)cc1,active: 0.233 µM
12,O=c1[nH]nc(SCc2ccccc2)n1C1CC2C=CC1C2 (centres undefined),inactive
13,O=C1CC(N2CCC(C(=O)N3CCCCC3)CC2)C(=O)N1 (centres undefined),inactive
14,CCc1nc(N)nc(N)c1-c1ccc(Cl)cc1,active: 33.8 nM and active: 82.8 nM
15,O=C(CN1C(=O)C2CC=CCC2C1=O)Nc1ccc(F)cc1F (centres undefined),inactive
16,Cc1ccc(OCCSCc2nc3ccccc3[nH]2)cc1,"inconclusive [inhibitor, single point]"
17,CCCCN(C(=O)c1cc(S(=O)(=O)N2CCCCCC2)ccc1OC)c1c(N)n(CCC)c(=O)[nH]c1=O,"inconclusive [inhibitor, single point]"
18,CCOC(=O)c1ccc(NC(=O)c2nc[nH]c2C(=O)N2CCN(c3ccccc3)CC2)cc1,"inconclusive [inhibitor, single point]"
19,COc1cccc(N(C(=O)c2snc(C(N)=O)c2N)C(C(=O)NCc2ccccc2)c2ccc(O)cc2)c1 (centres undefined),"inconclusive [inhibitor, single point]"
20,Cn1c(SCc2cccc3ccccc23)nnc1-c1ccco1,"inconclusive [inhibitor, single point]"
21,Cc1cccc(N=C2NN=C(c3ccc4c(c3)OCCO4)CS2)c1,inactive
22,CCCCN(C(=O)CCC(=O)Nc1cc(C)on1)C(C(=O)NC(C)(C)CC)c1cccc(OC)c1OC (centres undefined),"inconclusive [inhibitor, single point]"
23,C=CCSC1=N/C(=C\c2ccsc2)C(=O)S1,inactive
